“And” between values parts separate entries of the source, which are not always exact repeats. Identical values can stand only once. The campaign covered roughly 350,000 compounds. About 9,900 (2.8%) were called active. The inconclusive results got no clear call from the source; some entries with a clear call stand among them for comparison. Calls come from the whole dose curve; as a rule, active = well fitted activation curve with a large enough effect; inconclusive = small, poorly fitted or top-dose-only effect; inactive = no such curve, though single readings can be large or run the other way. Potencies beside an inconclusive call are fits to weak or partial responses and may not hold up.
Experiment: A quantitative high throughput screen for small molecules that induce DNA re-replication in MCF 10a normal breast cells. For activity, positive = re-replication: % of control where 0% means no effect. Note: nearly all actives have a fitted effect of over 50% in size.
Details: MCF 10A DNA re-replication, Hoechst nuclear intensity, 48 h; activity, positive = re-replication: at 46.1 µM (top of the series)
Potency is the fitted concentration of half-maximal effect; tags give direction and shape of the fitted curve.

Structure (SMILES)	Potency	activity, positive = re-replication
C=CCNC(=O)COC(=O)c1ccc(Cl)c(S(=O)(=O)N(Cc2ccccc2)c2ccccc2)c1	inconclusive: 18.4 µM [activator, single point]	–
O=C(c1cc(-c2cccc(Cl)c2)on1)N1CCN(c2ccccc2)CC1	–	inactive: 17%
CCn1c(SCC(=O)Nc2ccc(C)cc2)nc2nc3c(cc2c1=O)CCCC3	inconclusive: 20.6 µM [activator, partial curve, poor fit]	–
CN1/C(=C\C(=O)COC(=O)CN2C(=O)C3CC=CCC3C2=O)C(C)(C)c2ccccc21 (centres undefined)	inconclusive: 16.4 µM [activator, single point]	–
COC(=O)C1=C(C)NC(C)=C(C(=O)OCCN(C)Cc2ccccc2)C1c1cccc([N+](=O)[O-])c1 (centres undefined)	inconclusive: 31.2 µM [activator, partial curve, poor fit] and inconclusive: 23.1 µM [activator, single point]	–
Cc1ccc(Nc2nc(Cl)c(C=O)s2)cc1	inconclusive: 29.1 µM [activator, single point]	–
CC(C)NC(=O)c1onc(CSc2ccccc2F)c1C(=O)O	inconclusive: 16.4 µM [activator, partial curve, poor fit]	–
COCc1ccc(CN2CCCC(C(=O)Nc3ccc(-c4cscn4)cc3)C2)o1 (centres undefined)	–	inactive: 10.4%
N#CCC(=O)N/N=C/c1cn(Cc2ccc3ccccc3c2)c2ccccc12	active: 10.3 µM	–
COC(=O)c1cc(C(=O)N2CCN(c3ccccc3OC)CC2)cc([N+](=O)[O-])c1	active: 1.16 µM	–
O=C(COC(=O)c1cc[n+]([O-])cc1)NCCc1ccc(Cl)cc1Cl	inconclusive: 23.1 µM [activator, single point]	–
O=C(O)COc1ccccc1/C=C1\SC(=S)N(/N=C/c2ccccc2O)C1=O	inconclusive: 29.1 µM [activator, single point]	–
COc1ccc(CN2CN(C3CCCC3)CSC2=S)cc1	inconclusive: 29.1 µM [activator, single point]	–
COC(=O)[C@@H]1C[C@H]2CC[C@H](O)C[C@H]2N1Cc1ccc(C(C)(C)C)cc1	inconclusive: 29.1 µM [activator, single point]	–
O=C(Nc1cccc2nsnc12)c1ccc(-c2cccc(Cl)c2)o1	active: 5.8 µM	–
CCC(C)c1ccc(NC(=O)C2CCCN(c3ncccn3)C2)cc1 (centres undefined)	inconclusive: 29.1 µM [activator, single point]	–
CN(C)CCCNS(=O)(=O)c1ccc(NC2CCCCCC2)c([N+](=O)[O-])c1	inconclusive: 9.2 µM [activator, partial curve, poor fit]	–
COc1ccc(C(=O)Nc2ccc3c(c2)OCCO3)cc1	inconclusive: 29.1 µM [activator, single point]	–
CCCCCC(=O)Nc1ccccc1N1CCOCC1	–	inactive: -11%
Cc1cc(C)c2nc(N3CCN(C(=O)c4cccs4)CC3)sc2c1	inconclusive: 4.11 µM [activator, single point]	–
O=C(C1=C[C@H](C2CCCCC2)C[C@H](OCc2ccc(CO)cc2)O1)N1CCOCC1	–	inactive: -14.6%
Cc1cccc(Nc2ncnc(N)c2[N+](=O)[O-])n1	–	inactive: 0.0354%
O=C(CN1C(=O)COc2ccccc21)N(CCCN1CCOCC1)CC1CC=CCC1 (centres undefined)	–	inactive: 1.87%

Structure (SMILES)	Potency	activity, positive = re-replication
COc1ccc(NC(=O)CN(C)S(=O)(=O)c2ccc3[nH]c(=O)oc3c2)cc1	–	inactive: 4.38%
O=C(NC12CC3CC(CC(C3)C1)C2)N1CCN(S(=O)(=O)c2ccc(Cl)cc2)CC1	inconclusive: 2.59 µM [activator, full curve, poor fit]	–
COc1ccc(C(=O)COC(=O)CNC(=O)c2ccc(Cl)cc2Cl)c(OC)c1	inconclusive: 0.164 µM [activator, full curve, poor fit]	–
CC1CC(=O)C(C(C2=C(O)CC(C)CC2=O)c2ccccc2)=C(O)C1 (centres undefined)	–	inactive: -0.867%
C/C(Cn1cnc([N+](=O)[O-])n1)=N\NC(=O)c1ccncc1	inconclusive: 0.0291 µM [activator, full curve, poor fit]	–
COc1ccc2[nH]c(C)c(C(=O)CN3CCN(C/C=C/c4ccccc4)CC3)c2c1	inconclusive: 29.1 µM [activator, single point]	–
CC(C)Cc1nn2c(N)c(/C=C3\C=Nc4ccccc43)c(=O)nc2s1	inconclusive: 3.26 µM [activator, full curve]	–
COc1ccc(C(=O)NCC2(c3ccccc3)CCOCC2)cc1	–	inactive: 0%
Cc1ccc(N2C(=O)CSC2c2cccs2)cc1 (centres undefined)	inconclusive: 23.1 µM [activator, partial curve, poor fit]	–
COn1c2c(c3c4no[n+]([O-])c4ccc31)CCCC2	–	inactive: 23.5%
CC(C)NC(=O)COC(=O)c1cc(Br)ccc1Cl	inconclusive: 29.1 µM [activator, single point]	–
Cc1nc2c(-c3ccc(F)cc3)c(C)nn2c(C)c1CCC(=O)Nc1ccccc1F	inconclusive: 18.4 µM [activator, single point]	–
c1ccc(-c2cnc(-c3ccccc3)nn2)cc1	inconclusive: 0.058 µM [activator, full curve]	–
O=[N+]([O-])c1cc2c(c(CSc3nnc(Nc4ccccc4)s3)c1)OCOC2	–	inactive: -5.68%
Cc1sc(NC(=O)c2ccco2)c(C(c2cccnc2)N2CCC(C)CC2)c1C (centres undefined)	inconclusive: 29.1 µM [activator, single point]	–
CCN1CCN(c2nc3c(c(=O)[nH]c(=O)n3C)n2Cc2ccccc2F)CC1	inconclusive: 1.16 µM [activator, single point]	–
CCCCCNC(=O)C(C#N)c1nc2ccccc2nc1N1CCCC1 (centres undefined)	active: 10.3 µM	–
COc1ccc(CCn2c(=N)c(C(=O)NC3CCCCC3)cc3c(=O)n4ccccc4nc32)cc1	inconclusive: 4.61 µM [activator, single point]	–
O=C(Nc1ccc(Cl)cc1)Nc1ccc(-c2cnco2)cc1	inconclusive: 16.4 µM [activator, partial curve, poor fit]	–
COc1cc2[nH]c(=S)nc(NCC3CCCO3)c2cc1OC (centres undefined)	–	inactive: 4.38%
O=C(c1noc2c1CCCC2)N1CCN(c2ccccc2)CC1	–	inactive: -2.14%
Cc1[nH]c2ccccc2c1C(=O)COC(=O)c1c(-c2c(F)cccc2Cl)noc1C	inconclusive: 20.6 µM [activator, single point]	–
O=C(CCl)N(c1ccccc1)c1ccccc1	inconclusive: 29.1 µM [activator, single point]	–

Structure (SMILES)	Potency	activity, positive = re-replication
Cn1c(/C(C#N)=C(\O)c2ccc([N+](=O)[O-])cc2)nc2ccccc21	–	inactive: 5.72%
CC(C)OC(=O)c1cc(Cl)c(=O)n(Cc2ccc(Cl)cc2Cl)c1	–	inactive: 22.5%
C=CCOC(=O)C1=C(C)NC(SCC(=O)N(CC)CC)=C(C#N)C1c1ccco1 (centres undefined)	inconclusive: 29.1 µM [activator, partial curve, poor fit]	–
Cc1ccc(C)c(N2CCN(S(=O)(=O)c3ccc(-c4ccc(=O)[nH]n4)o3)CC2)c1	inconclusive: 13 µM [activator, single point]	–
O=C(C1CCN(c2ncnc3c2nc2n3CCCCC2)CC1)N1CCCCC1	inconclusive: 20.6 µM [activator, single point]	–
c1ccc2c(c1)CCN(c1nc3cc4c(cc3s1)OCO4)C2	inconclusive: 20.6 µM [activator, partial curve, poor fit]	–
CC(=O)Oc1ccc(-c2ccc(C(=O)Nc3cccc(S(=O)(=O)N4CCOCC4)c3)cc2)cc1	–	inactive: -6.19%
COc1cc2c(cc1OC)C(C)N(C(=O)CCNC(=O)c1ccccc1)CC2 (centres undefined)	–	inactive: 4.59%
Cc1ccc(S(=O)(=O)N2CCN(C(=O)CSc3ccc(Cl)cc3)CC2)cc1	inconclusive: 29.1 µM [activator, single point]	–
Cc1ccc(-c2nc(Nc3ccc(N4CCOCC4)cc3)c3ccccc3n2)cc1	inconclusive: 20.6 µM [activator, partial curve, poor fit]	–
Cn1c(=O)c2c(SCc3cccc(C(F)(F)F)c3)nc(-c3ccco3)nc2n(C)c1=O	inconclusive: 20.6 µM [activator, partial curve, poor fit]	–
O=S(=O)(c1ccc(F)cc1)N1CCCN(c2nccc(C(F)(F)F)n2)CC1	–	inactive: 12%
Cc1ccc(/C=C2\SC(=S)N(C(Cc3ccccc3)C(=O)O)C2=O)cc1 (centres undefined)	inconclusive: 20.6 µM [activator, single point]	–
Cc1ccc(Cl)cc1N1CCN(C(=O)c2ccc(CN3CCOCC3)cc2)CC1	–	inactive: 6.43%
COc1cccc(-c2nc(CS(=O)(=O)CC(=O)NCCC(C)C)c(C)o2)c1	–	inactive: -6.85%
COc1ccc(CCNc2nc3ccccc3n3nnnc23)cc1OC	–	inactive: -14.2%
Cc1cc(C)c2c(-n3cccc3)c(C(=O)NNS(=O)(=O)c3ccc(Br)cc3)sc2n1	inconclusive: 20.6 µM [activator, single point]	–
COc1ccc(-c2cc3ccc(OC)cc3cn2)cc1	–	inactive: 12%
N/C(=N\OC(=O)c1ccccc1)C(C(=O)NOC(=O)c1ccccc1)C1CCCCC1 (centres undefined)	inconclusive: 25.9 µM [activator, single point]	–
O=C1c2cccnc2C(=O)N1Cc1ccc(S(=O)(=O)N2CCOc3ccccc32)cc1	–	inactive: -2.46%
O=C(CC(Nc1ccc(Cl)cc1Cl)C(=O)O)c1ccccc1 (centres undefined)	inconclusive: 32.6 µM [activator, single point]	–
Cc1ccc(Cc2cnc(N3C(=N)SC(C)C3=O)s2)cc1 (centres undefined)	inconclusive: 4.11 µM [activator, full curve, poor fit]	–
Cc1ccc(C(=O)N/N=C\c2ccc(-c3ccc(Cl)cc3)o2)cn1	inconclusive: 20.6 µM [activator, single point]	–
